# Assay results from paper PMC7819943, “Rice protein-binding microarrays: a tool to detect cis-acting elements near promoter regions in rice”.
# The other results are listed elsewhere or left out.
# Target: T1, OsWOX13 (Oryza sativa, UniProt Q5QMM3 1-267)
# T1 sequence: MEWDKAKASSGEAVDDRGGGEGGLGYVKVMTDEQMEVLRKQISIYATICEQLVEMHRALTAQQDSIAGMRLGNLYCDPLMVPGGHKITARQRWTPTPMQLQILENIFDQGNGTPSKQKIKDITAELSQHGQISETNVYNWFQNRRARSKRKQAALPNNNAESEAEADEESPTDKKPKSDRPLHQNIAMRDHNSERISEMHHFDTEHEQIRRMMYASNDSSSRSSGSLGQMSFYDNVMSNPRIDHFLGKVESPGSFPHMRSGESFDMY
# Experiment: protein-binding microarray (RPBM); PBS, 2% BSA, 51.3 ng/ul salmon testes DNA, 50 uM zinc acetate, 200 nM TF, 25 C, 1 h; high values mean tight binding
# Conditions: protein: recombinant; tags: N-terminal polyhistidine and DsRed monomer fusion (pET32a); label: CyDye5-dUTP incorporated in the synthesized complementary strand; 3' TTTTT single-stranded linker to array surface; dsDNA, one strand shown
# In short: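 A custom Agilent array was converted to double-stranded form by primer extension with Cy5-dUTP and blocked with 2% BSA. Protein at 200 nM in PBS with 2% BSA, salmon testes DNA and 50 µM zinc acetate was applied for 1 h at 25 °C, followed by washing. The proteins were polyhistidine–DsRed N-terminal fusions of transcription factors, expressed in E. coli BL21-CodonPlus and Ni–NTA-purified. The binding signal is per-feature fluorescence intensity (arbitrary units) from an Axon 4000B scanner.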
row,Sequence,binding signal
1,GTGTCCTCAATTGAATTGACTCAATTCAATGGCTACCATACGGAGTCACCTAGTGCAG,6900 fluorescence intensity (a.u.)
2,ATTGATGAGCTTACTTTTACTAATTTGTTGGTCGCAACAACGGAGTCACCTAGTGCAG,10600 fluorescence intensity (a.u.)
3,AGAACTAGCATGATTTAGGACTAATTAGTAAATACTATTACGGAGTCACCTAGTGCAG,13200 fluorescence intensity (a.u.)
4,CTAGATAGCTGAAATTGATGGATTTGGATAATCTAGATAGCGGAGTCACCTAGTGCAG,33800 fluorescence intensity (a.u.)
5,AGGTTTGTCAGGTCAATCAAAACCCGCCGATTGTACTACACGGAGTCACCTAGTGCAG,8470 fluorescence intensity (a.u.)
6,TTATAATTAATTTTCAAACATCCGATGTGATAGGGACTTACGGAGTCACCTAGTGCAG,36000 fluorescence intensity (a.u.)
7,CTGTTGGCAATAATTAATTATATAATTACTACTACTTACTCGGAGTCACCTAGTGCAG,26700 fluorescence intensity (a.u.)
8,ACGTGCTAATTAACTTCTTAAAGAGCTGACCTTAAAATATCGGAGTCACCTAGTGCAG,3190 fluorescence intensity (a.u.)
9,ATCGAAACGGATGGATGGCAAATTGGCAATATGGCATGGCCGGAGTCACCTAGTGCAG,3560 fluorescence intensity (a.u.)
10,GCATTGTAATTAATATGGGCAAAATAGGAAATAAACACCCCGGAGTCACCTAGTGCAG,9020 fluorescence intensity (a.u.)
11,TGAAGATATGGTAATTGGTGTCCATTATGGTATTTCTTAGCGGAGTCACCTAGTGCAG,3930 fluorescence intensity (a.u.)
12,CAGTAATTGTCACTATCTTATTACACATTATTCTGTCCAGCGGAGTCACCTAGTGCAG,25700 fluorescence intensity (a.u.)
13,AGGGTCAATCAGTTCCTCCACTTTTGTCACGAGATTAGCGCGGAGTCACCTAGTGCAG,8570 fluorescence intensity (a.u.)
14,TGTGATTGGTTAAGAAGTGGAGGTAGTTAGGAAAAGTGAACGGAGTCACCTAGTGCAG,31800 fluorescence intensity (a.u.)
15,GTTGTTAGATGATAAAACATGATTAATATTCTATGCGTGACGGAGTCACCTAGTGCAG,4840 fluorescence intensity (a.u.)
16,ATTGATTAGTAGTAATTAATTAGTTATAAACTACACGCGCCGGAGTCACCTAGTGCAG,58700 fluorescence intensity (a.u.)
17,ATTCGTGTCAAATTTAGAACTTAATCGGATGGACTAGTTGCGGAGTCACCTAGTGCAG,3300 fluorescence intensity (a.u.)
18,CCAAAATAAACAACCAAAATTTCGCCGTGTAACTAACTCTCGGAGTCACCTAGTGCAG,3300 fluorescence intensity (a.u.)
19,GTACTTGATAGTTCAGTGATAAGGGGTGTGATTTCAACCCCGGAGTCACCTAGTGCAG,4490 fluorescence intensity (a.u.)
20,GCGAGAGGGGACTGGGGAGGGGAGGGGCGGCGCTCGCTGGCGGAGTCACCTAGTGCAG,6420 fluorescence intensity (a.u.)
21,AGTGGACAAAATGACATTTGATTACTTTGAAAAGTAACAACGGAGTCACCTAGTGCAG,3920 fluorescence intensity (a.u.)

row,Sequence,binding signal
1,TTAACATTAACAGATTCATGTATATTTACATGTTTATATACGGAGTCACCTAGTGCAG,3370 fluorescence intensity (a.u.)
2,CTTTAAATCATTTATAACATCATCTAATATGTCTACAACGCGGAGTCACCTAGTGCAG,14900 fluorescence intensity (a.u.)
3,CAAATTTAGACGGCTAAGATATCTTCAATCGTGCAGCCCTCGGAGTCACCTAGTGCAG,4620 fluorescence intensity (a.u.)
4,CTATAATAATTTATTGTGATTTTGTGTACGTTGGTTAGACCGGAGTCACCTAGTGCAG,43500 fluorescence intensity (a.u.)
5,CATGATTAGGCGTCCAATTACCAAATTCTAAGCCCACAATCGGAGTCACCTAGTGCAG,14700 fluorescence intensity (a.u.)
6,TTAAAACTTGATTTGGATCAATGCTTTTCTAACGTAGTTTCGGAGTCACCTAGTGCAG,7870 fluorescence intensity (a.u.)
7,GTCGGAGATTGATAACTCAATATCACTATTTGTGAACTGACGGAGTCACCTAGTGCAG,39000 fluorescence intensity (a.u.)
8,CAAGAACCAATAATTTGCAAACTGTAGGGCACAGTTCGATCGGAGTCACCTAGTGCAG,6920 fluorescence intensity (a.u.)
9,TTTTAAATTTTGAGTTGAAAATTTTCAAATTTGAACTTGACGGAGTCACCTAGTGCAG,3880 fluorescence intensity (a.u.)
10,GTAATTACGTCTGTATATTATAAACCAGTAAACCACTGCTCGGAGTCACCTAGTGCAG,5390 fluorescence intensity (a.u.)
11,GAAGGAGATTGGGGAGATTGGGAAGATACGTAAAACGAGGCGGAGTCACCTAGTGCAG,23300 fluorescence intensity (a.u.)
12,CTTCCAATTTGAGATTTGAAAACTTTCAACTCGAGATTCGCGGAGTCACCTAGTGCAG,4020 fluorescence intensity (a.u.)
13,CATCAACAGCAATCAGTCAGTCCAGTGTGTATCTGATACTCGGAGTCACCTAGTGCAG,4440 fluorescence intensity (a.u.)
14,ATAAATTATTGAATCAATGCATTCTATTTATCCTGAGGACCGGAGTCACCTAGTGCAG,23200 fluorescence intensity (a.u.)
15,ACAGATATTACAGCACTGATTAGCACTTCTCAGGTGTCTTCGGAGTCACCTAGTGCAG,21500 fluorescence intensity (a.u.)
16,ACCTAATAGCAAATTCTTAATTCCCAACCATAATGTCTTCCGGAGTCACCTAGTGCAG,3350 fluorescence intensity (a.u.)
17,TTTAATTGATAAATATTATCAATTATTAAACAGATAAGCGCGGAGTCACCTAGTGCAG,62800 fluorescence intensity (a.u.)
18,AGTTCTTCATCAATATGATTAAGTGTGACATCAGGCCTGACGGAGTCACCTAGTGCAG,5180 fluorescence intensity (a.u.)
19,CTAAATTTGACTAAGTTTGTAGAAAACAATTAGTAACATTCGGAGTCACCTAGTGCAG,7080 fluorescence intensity (a.u.)
20,TTACCAGAATTAAAATTCTAATTATCTTGCCGCTTCCAAACGGAGTCACCTAGTGCAG,4610 fluorescence intensity (a.u.)
21,ATATATATATATATATATATTAAATTTGTTTGGTGCTCCACGGAGTCACCTAGTGCAG,10000 fluorescence intensity (a.u.)
